Data on 10 variants can be found in the supplement of paper PMC12217912.

B1: TEV protease; numbered along this chain (parent)
chain: MGESLFKGPRDYNPISSSICHLTNESDGHTTSLYGIGFGPFIITNKHLFRRNNGTLVVQSLHGVFKVKDTTTLQQHLVDGRDMIIIRMPKDFPPFPQKLKFREPQREERICLVTTNFQTKSMSSMVSDTSCTFPSGDGIFWKHWIQTKDGQCGSPLVSTRDGFIVGIHSASNFTNTNNYFTSVPKNFMELLTNQEAQQWVSGWRLNADSVLWGGHKVFMVKPEEPFQPVKEATQL

In this assay the parent is B1. The assay can be described thus: raw area under fraction-flipped curve 0-4 h after induction (AUC4h, not background-subtracted), DNA-recorder readout of cleavage of the substrate (dimensionless); higher = more cleavage of the substrate by the protease variant. The note with it: temperature: 34 °C; time window: 0-4 h after rhamnose induction. The method, then: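 In vivo DNA recorder in E. coli TOP10(DE3) ΔrhaA at 34 °C. Each TEVp single-site mutant (parent TEVp 0) is paired with a single-site variant of the 7-mer TEVs (canonical ENLYFQ|S). The substrate sits between flexible linkers in a Bxb1-sfGFP-TEVs-SsrA fusion, so cleavage stabilises Bxb1 and speeds flipping of a recombination array, read by NGS. The value is the raw area under the fraction-flipped curve over 0-4 h after rhamnose induction (AUC4h), with ≥20 reads per time point. It is not background-subtracted; inactive controls average about 0.047.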

The list shows a part of the results. Sequences were assembled here from the parent chain. Inactive controls read about 0.05.
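Further: Bxb1 expression induced with 0.2% (w/v) L-rhamnose at OD600 near 0.5, cultures sampled hourly, flipped fraction per protease–substrate barcode pair counted by paired-end Illumina sequencing.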

MGESLFKGPRDYNPISSSICHLTNESDGHTTSLYGIGFGPFIITNKHLFRRNNGTLVVQSLHGVFKVKDTTTLQQHLVDGRDMIIIRMPKDFPPFPQKLKFREPNREERICLVTTNFQTKSMSSMVSDTSCTFPSGDGIFWKHWIQTKDGQCGSPLVSTRDGFIVGIHSASNFTNTNNYFTSVPKNFMELLTNQEAQQWVSGWRLNADSVLWGGHKVFMVKPEEPFQPVKEATQL [Q105N]: the “area with substrate ENLYFAS” value worked out at 0.0948, the “area with substrate ENLYFCS” value was 0.0562, the “area with substrate ENLYFDS” value was 0.0658 and the “area with substrate ENLYFES” value came to 0.0617. The “area with substrate ENLYFFS” value amounted to 0.0673, the “area with substrate ENLYFGS” value is 0.0462, the “area with substrate ENLYFHS” value was determined as 0.068 and the “area with substrate ENLYFIS” value was found to be 0.0575. For the same variant, the “area with substrate ENLYFKS” value was found to be 0.0623, the “area with substrate ENLYFMS” value was 0.0633, the “area with substrate ENLYFNS” value was 0.0604 and the “area with substrate ENLYFPS” value came out at 0.0675. The “area with substrate ENLYFRS” value amounted to 0.0538, the “area with substrate ENLYFSS” value amounted to 0.0685, the “area with substrate ENLYFTS” value worked out at 0.0559 and the “area with substrate ENLYFVS” value was 0.0594. Moreover, the “area with substrate ENLYFWS” value was 0.0655 and the “area with substrate ENLYFYS” value worked out at 0.0551.

As for MGESLFKGPRDYNPISSSICHLTNESDGHTTSLYGIGFGPFIITNKHLFRRNNGTLVVQSLHGVFKVKDTTTLQQHLVDGRDMIIIRMPKDFPPFPQKLWFREPQREERICLVTTNFQTKSMSSMVSDTSCTFPSGDGIFWKHWIQTKDGQCGSPLVSTRDGFIVGIHSASNFTNTNNYFTSVPKNFMELLTNQEAQQWVSGWRLNADSVLWGGHKVFMVKPEEPFQPVKEATQL [K100W], the “area with substrate ENLYFAS” value came to 0.0567, the “area with substrate ENLYFCS” value was found to be 0.0606, the “area with substrate ENLYFES” value came out at 0.0701 and the “area with substrate ENLYFGS” value was determined as 0.0655. In addition, the “area with substrate ENLYFHS” value amounted to 0.0628, the “area with substrate ENLYFIS” value was 0.0596, the “area with substrate ENLYFMS” value is 0.0644 and the “area with substrate ENLYFNS” value came to 0.0591. Also, the “area with substrate ENLYFRS” value was 0.0539, the “area with substrate ENLYFSS” value was 0.0771 and the “area with substrate ENLYFYS” value came out at 0.0708.

On to MGESLFKGPRDYNPISSSICHLTNESDGHTTSLYGIGFGPFIITNKHLFRRNNGTLVVQSLHGVFKVKDTTTLQQHLVDGRDMIIIRMPKDFPPFPQKLKFRYPQREERICLVTTNFQTKSMSSMVSDTSCTFPSGDGIFWKHWIQTKDGQCGSPLVSTRDGFIVGIHSASNFTNTNNYFTSVPKNFMELLTNQEAQQWVSGWRLNADSVLWGGHKVFMVKPEEPFQPVKEATQL [E103Y], for which the “area with substrate ENLYFAS” value turned out to be 0.0494, the “area with substrate ENLYFCS” value is 0.0569, the “area with substrate ENLYFES” value was 0.0553 and the “area with substrate ENLYFHS” value amounted to 0.0469. Moreover, the “area with substrate ENLYFIS” value came to 0.0548, the “area with substrate ENLYFPS” value was found to be 0.0823 and the “area with substrate ENLYFWS” value was 0.0391.

As to MGESLFKGPRDYNPISSSICHLTNESDGHTTSLYGIGFGPFIITNKHLFRRNNGTLVVQSLHGVFKVKDTTTLQQHLVDGRDMIIIRMPKDFPPFPQKLKFRKPQREERICLVTTNFQTKSMSSMVSDTSCTFPSGDGIFWKHWIQTKDGQCGSPLVSTRDGFIVGIHSASNFTNTNNYFTSVPKNFMELLTNQEAQQWVSGWRLNADSVLWGGHKVFMVKPEEPFQPVKEATQL [E103K], the “area with substrate ENLYFAS” value came to 0.0687, the “area with substrate ENLYFCS” value is 0.0577, the “area with substrate ENLYFES” value was determined as 0.0535 and the “area with substrate ENLYFFS” value came to 0.0636. Also, the “area with substrate ENLYFGS” value was determined as 0.06, the “area with substrate ENLYFHS” value stood at 0.0554, the “area with substrate ENLYFIS” value worked out at 0.0483 and the “area with substrate ENLYFKS” value amounted to 0.0652. Moreover, the “area with substrate ENLYFMS” value is 0.0723, the “area with substrate ENLYFSS” value turned out to be 0.0592 and the “area with substrate ENLYFTS” value came out at 0.0685.

Consider MGESLFKGPRDYNPISSSICHLTNESDGHTTSLYGIGFGPFIITNKHLFRRNNGTLVVQSLHGVFKVKDTTTLQQHLVDGRDMIIIRMPKDFPPFPQKLKFREYQREERICLVTTNFQTKSMSSMVSDTSCTFPSGDGIFWKHWIQTKDGQCGSPLVSTRDGFIVGIHSASNFTNTNNYFTSVPKNFMELLTNQEAQQWVSGWRLNADSVLWGGHKVFMVKPEEPFQPVKEATQL [P104Y], for which the “area with substrate ENLYFAS” value is 0.0529, the “area with substrate ENLYFCS” value is 0.0495, the “area with substrate ENLYFFS” value was found to be 0.0686 and the “area with substrate ENLYFGS” value amounted to 0.0578. Moreover, the “area with substrate ENLYFHS” value turned out to be 0.0589, the “area with substrate ENLYFIS” value came to 0.0502, the “area with substrate ENLYFKS” value amounted to 0.0478 and the “area with substrate ENLYFLS” value came out at 0.0262. Also, the “area with substrate ENLYFMS” value is 0.0576, the “area with substrate ENLYFPS” value was determined as 0.0398, the “area with substrate ENLYFRS” value turned out to be 0.037 and the “area with substrate ENLYFSS” value turned out to be 0.0498. The “area with substrate ENLYFWS” value is 0.0517 and the “area with substrate ENLYFYS” value is 0.0436.

Consider MGESLFKGPRDYNPISSSICHLTNESDGHTTSLYGIGFGPFIITNKHLFRRNNGTLVVQSLHGVFKVKDTTTLQQHLVDGRDMIIIRMPKDFPPFPQKLKFREPQREYRICLVTTNFQTKSMSSMVSDTSCTFPSGDGIFWKHWIQTKDGQCGSPLVSTRDGFIVGIHSASNFTNTNNYFTSVPKNFMELLTNQEAQQWVSGWRLNADSVLWGGHKVFMVKPEEPFQPVKEATQL [E108Y], for which the “area with substrate ENLYFAS” value was 0.0587, the “area with substrate ENLYFES” value is 0.0596, the “area with substrate ENLYFHS” value turned out to be 0.0636 and the “area with substrate ENLYFIS” value was found to be 0.0582. In addition, the “area with substrate ENLYFKS” value was 0.0612, the “area with substrate ENLYFMS” value was determined as 0.0389, the “area with substrate ENLYFNS” value turned out to be 0.0084 and the “area with substrate ENLYFRS” value came out at 0.0581. Also, the “area with substrate ENLYFTS” value was 0.0565, the “area with substrate ENLYFVS” value stood at 0.0418 and the “area with substrate ENLYFWS” value was found to be 0.0389.

For the variant MGESLFKGPRDYNPISSSICHLTNESDGHTTSLYGIGFGPFIITNKHLFRRNNGTLVVQSLHGVFKVKDTTTLQQHLVDGRDMIIIRMPKDFPPFPQKLKFREPQRENRICLVTTNFQTKSMSSMVSDTSCTFPSGDGIFWKHWIQTKDGQCGSPLVSTRDGFIVGIHSASNFTNTNNYFTSVPKNFMELLTNQEAQQWVSGWRLNADSVLWGGHKVFMVKPEEPFQPVKEATQL [E108N], the “area with substrate ENLYFAS” value stood at 0.0607, the “area with substrate ENLYFCS” value was determined as 0.0541, the “area with substrate ENLYFDS” value was determined as 0.058 and the “area with substrate ENLYFES” value is 0.0492. The “area with substrate ENLYFFS” value is 0.0559, the “area with substrate ENLYFHS” value is 0.04, the “area with substrate ENLYFIS” value was found to be 0.0537 and the “area with substrate ENLYFKS” value came to 0.0505. Further, the “area with substrate ENLYFLS” value was determined as 0.0554, the “area with substrate ENLYFMS” value was found to be 0.0546, the “area with substrate ENLYFPS” value came out at 0.0482 and the “area with substrate ENLYFSS” value was found to be 0.036. For the same variant, the “area with substrate ENLYFTS” value was 0.0545, the “area with substrate ENLYFVS” value was 0.0479 and the “area with substrate ENLYFWS” value is 0.0602.

Take MGESLFKGPRDYNPISSSICHLTNESDGHTTSLYGIGFGPFIITNKHLFRRNNGTLVVQSLHGVFKVKDTTTLQQHLVDGRDMIIIRMPKDFPPFPQKLKFREPQREERICLVTTAFQTKSMSSMVSDTSCTFPSGDGIFWKHWIQTKDGQCGSPLVSTRDGFIVGIHSASNFTNTNNYFTSVPKNFMELLTNQEAQQWVSGWRLNADSVLWGGHKVFMVKPEEPFQPVKEATQL [N116A]: the “area with substrate ENLYFAS” value is 0.0548, the “area with substrate ENLYFCS” value was found to be 0.0408, the “area with substrate ENLYFDS” value amounted to 0.0745 and the “area with substrate ENLYFES” value came to 0.0493. Also, the “area with substrate ENLYFFS” value is 0.0726, the “area with substrate ENLYFGS” value is 0.0551, the “area with substrate ENLYFHS” value amounted to 0.0617 and the “area with substrate ENLYFIS” value is 0.0547. The “area with substrate ENLYFLS” value turned out to be 0.0548, the “area with substrate ENLYFMS” value is 0.076, the “area with substrate ENLYFNS” value amounted to 0.0328 and the “area with substrate ENLYFPS” value was 0.0541. Moreover, the “area with substrate ENLYFVS” value worked out at 0.0636, the “area with substrate ENLYFWS” value was determined as 0.0609 and the “area with substrate ENLYFYS” value is 0.0687.

With MGESLFKGPRDYNPISSSICHLTNESDGHTTSLYGIGFGPFIITNKHLFRRNNGTLVVQSLHGVFKVKDTTTLQQHLVDGRDMIIIRMPKDFPPFPQKLKFREPQREERHCLVTTNFQTKSMSSMVSDTSCTFPSGDGIFWKHWIQTKDGQCGSPLVSTRDGFIVGIHSASNFTNTNNYFTSVPKNFMELLTNQEAQQWVSGWRLNADSVLWGGHKVFMVKPEEPFQPVKEATQL [I110H], the “area with substrate ENLYFAS” value came out at 0.059, the “area with substrate ENLYFCS” value is 0.0492, the “area with substrate ENLYFES” value amounted to 0.0414 and the “area with substrate ENLYFFS” value is 0.0648. The “area with substrate ENLYFGS” value was 0.0777, the “area with substrate ENLYFIS” value was found to be 0.0481, the “area with substrate ENLYFKS” value came to 0.0465 and the “area with substrate ENLYFMS” value turned out to be 0.0528. The “area with substrate ENLYFNS” value is 0.0486, the “area with substrate ENLYFPS” value amounted to 0.0479, the “area with substrate ENLYFRS” value is 0.0602 and the “area with substrate ENLYFSS” value was determined as 0.0571. Also, the “area with substrate ENLYFTS” value was found to be 0.0547, the “area with substrate ENLYFWS” value is 0.0466 and the “area with substrate ENLYFYS” value worked out at 0.0389.

MGESLFKGPRDYNPISSSICHLTNESDGHTTSLYGIGFGPFIITNKHLFRRNNGTLVVQSLHGVFKVKDTTTLQQHLVDGRDMIIIRMPKDFPPFPQKLKFREPQREERICLVMTNFQTKSMSSMVSDTSCTFPSGDGIFWKHWIQTKDGQCGSPLVSTRDGFIVGIHSASNFTNTNNYFTSVPKNFMELLTNQEAQQWVSGWRLNADSVLWGGHKVFMVKPEEPFQPVKEATQL [T114M]: the “area with substrate ENLYFAS” value came out at 0.0726, the “area with substrate ENLYFDS” value stood at 0.0517, the “area with substrate ENLYFES” value was determined as 0.0874 and the “area with substrate ENLYFFS” value came out at 0.0655. In addition, the “area with substrate ENLYFIS” value amounted to 0.0701, the “area with substrate ENLYFMS” value amounted to 0.0563, the “area with substrate ENLYFNS” value was 0.0715 and the “area with substrate ENLYFPS” value is 0.0634. The “area with substrate ENLYFRS” value amounted to 0.0389, the “area with substrate ENLYFTS” value was determined as 0.0608, the “area with substrate ENLYFVS” value amounted to 0.0399 and the “area with substrate ENLYFWS” value was 0.0554.
